The campaign covered roughly 48,000 compounds. About 550 (1.1%) were called active. Not shown: some 4% with an inconclusive outcome. No stated cut-off is given here; in the data, active means potency below about 15 µM; inconclusive means mostly about 16 µM to 33 µM; inactive means weaker than that. The list shows a part of the results.
Potency means the concentration at half of the fitted maximal effect.

Sequence of UniProt P04062 (P04062 whole entry, looked up): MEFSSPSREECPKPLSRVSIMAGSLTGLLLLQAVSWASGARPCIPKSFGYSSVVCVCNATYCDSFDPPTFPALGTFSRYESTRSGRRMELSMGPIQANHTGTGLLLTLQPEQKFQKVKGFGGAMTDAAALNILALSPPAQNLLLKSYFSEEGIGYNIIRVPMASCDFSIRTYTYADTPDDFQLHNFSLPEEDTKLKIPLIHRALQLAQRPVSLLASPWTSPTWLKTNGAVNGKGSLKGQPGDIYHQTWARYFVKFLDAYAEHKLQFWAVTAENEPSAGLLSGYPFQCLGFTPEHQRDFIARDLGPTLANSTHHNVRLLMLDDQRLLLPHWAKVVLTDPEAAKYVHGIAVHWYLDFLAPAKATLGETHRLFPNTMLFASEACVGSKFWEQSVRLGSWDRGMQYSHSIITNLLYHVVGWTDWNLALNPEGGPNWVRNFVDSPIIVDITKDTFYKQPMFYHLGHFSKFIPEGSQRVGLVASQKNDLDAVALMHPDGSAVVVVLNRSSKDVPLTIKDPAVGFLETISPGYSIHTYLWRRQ

For this experiment, the target named is Lysosomal acid glucosylceramidase (Homo sapiens) (UniProt P04062). Kind of experiment: Glucocerebrosidase.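 Further: the screen sought inhibitors.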 To be noted: purified enzyme, resorufin glucoside fluorescence (screen aimed at inhibitors), 20 min; series mostly up to 77 µM. In outline:
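Compounds titrated against 0.2 nM normal enzyme, 30 uM resorufin beta-D-glucopyranoside substrate, citrate/phosphate buffer with taurocholate and tween-20, pH 5.9. Reaction ran 20 min at room temperature; fluorescence (Ex 548/Em 600) gave AC50.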
In the case of `CC(=O)N1CCN(c2ccc(Nc3nc(C)nc4c3oc3ccccc34)cc2)CC1`, the Potency is inactive: > 76.9 µM.
In the case of `COc1ccccc1-n1cnnc1SCC(=O)N1CCN(S(=O)(=O)c2ccccc2)CC1`, the Potency was inactive: > 76.9 µM.
The result for `Cc1cc(C)n(-c2nncn2/N=C/c2ccccc2F)n1` reads inactive: > 76.9 µM; that for `COc1cc2nc(C)sc2cc1SC`, inactive: > 76.9 µM.
The result for `Cn1cccc1C1NC(=O)c2c(sc3c2CCC(C(C)(C)C)C3)N1` (centres undefined) reads inactive: > 76.9 µM; that for `CC(=O)C1=C(O)C(=O)N(CCC(=O)O)C1c1cccc(F)c1` (centres undefined), inactive: > 76.9 µM; that for `Cc1cc(NC(=O)CSc2nnc(C(C)N(C)C)n2Cc2ccccc2)no1` (centres undefined), inactive: > 76.9 µM.
In the case of `C=CCSc1nnc(NC(=O)CSc2nc(CCC)cc(=O)[nH]2)s1` it was inactive: > 76.9 µM; in that of `Cc1cc(C)cc(NC(=O)CSc2nnc(-c3ccccc3Br)o2)c1`, inactive: > 76.9 µM.
`CCN1CCN(CC(O)COc2ccc(C)c(C)c2)CC1` (centres undefined): the Potency was inactive: > 76.9 µM.
In the case of `Cc1cc(NC(=O)CCC(=O)N(c2cccc(F)c2)C(C(=O)NC2CCCC2)c2ccncc2)no1` (centres undefined) it was inactive: > 76.9 µM.
In the case of `COc1ccc(OC)c(CNC(=O)COc2cc(=O)n(C)c3ccccc23)c1` it was inactive: > 76.9 µM; in that of `O=C(Nc1ccc(NC(=O)C2CC2)cn1)c1ccccc1Cl`, inactive: > 76.9 µM.
The result for `O=C(Nc1nc2ccccc2n1CCOc1ccccc1)c1ccco1` reads inactive: > 76.9 µM; that for `CC(=O)Nc1nc(-c2cccs2)cs1`, inactive: > 76.9 µM.
Turning to `Cc1cn2c(-c3cccnc3)nnc2s1`, the Potency is inactive: > 76.9 µM.
In the case of `C=CCn1c(-c2ccccc2)nc2nc3ccccc3nc21` it was inactive: > 76.9 µM; in that of `COC(=O)NCCOC(=O)N(O)c1ccc(Br)cc1`, inactive: > 76.9 µM; in that of `CCn1c(CSc2nc3ccccc3[nH]2)n[nH]c1=S`, inactive: > 76.9 µM.
In the case of `CCCOc1ccc(C2C(C(=O)c3ccc(C)o3)=C(O)C(=O)N2Cc2cccnc2)cc1` (centres undefined) it was inactive: > 76.9 µM; in that of `CCOC(=O)N1CCN(Cc2nc3c(c(=O)n(C)c(=O)n3C)n2Cc2cc(C)ccc2C)CC1`, inactive: > 76.9 µM; in that of `COc1ccccc1NC(=O)c1cc(Sc2nncn2C)nc2ccccc12`, inactive: > 76.9 µM.
As to `CC(C)COC(=O)N1CCCC1C(=O)Nc1nccs1` (centres undefined), the Potency was inactive: > 76.9 µM.
In the case of `Cc1nc2nc(Cc3ccccc3)nn2c(C)c1Cl` it was inactive: > 76.9 µM.
The result for `O=C(CSc1nnc(-c2cccs2)n1-c1ccccc1)N1CCCC1` reads inactive: > 76.9 µM; that for `CC(C)Oc1cccc(C(=O)Nc2ccccc2N2CCOCC2)c1`, inactive: > 76.9 µM; that for `C=CCN(C(=O)CCC(=O)Nc1cc(C)on1)C(C(=O)NC1CCCC1)c1cccnc1` (centres undefined), inactive: > 76.9 µM.
As for `Cc1c(C#N)c2ccccc2n1CC(=O)NCc1cccnc1`, the Potency is inactive: > 76.9 µM.
The result for `O=C(O)CSCc1c(F)cccc1Cl` reads inactive: > 76.9 µM; that for `CCOC(=O)c1c(CN2CCN(C)CC2)oc2ccc(OC)cc12`, inactive: > 76.9 µM.
In the case of `Cc1cc2nnc(SC3CCOC3=O)n2c2ccccc12` (centres undefined) it was inactive: > 76.9 µM; in that of `CCC1Oc2ccc(Cl)cc2N(CC(=O)O)C1=O` (centres undefined), inactive: > 76.9 µM; in that of `O=C(COc1ccc(Cl)cc1)NCc1nnc(SCC(=O)Nc2ccccc2)o1`, inactive: > 76.9 µM.
In the case of `Cc1cc(N(CN2CCCC2=O)C(=O)c2ccc(F)cc2)no1` it was inactive: > 76.9 µM.
`CC(C)c1cc(NC(=O)CSc2nnc(-c3ccccc3F)n2C)on1`: the Potency was inactive: > 76.9 µM.
Consider `COc1cc2c(cc1OC)C(C(=O)NCCN1CCOCC1)C1c3ccccc3CCN1C2=O` (centres undefined), for which the Potency was inactive: > 76.9 µM.
In the case of `N#CCSc1nc2c(c(C3CC=CCC3)c1C#N)CCC2` (centres undefined) it was inactive: > 76.9 µM; in that of `CCCn1c(=O)c(Cc2ccccc2)c(O)c2ccccc21`, inactive: > 76.9 µM.
Regarding `Cc1cc(NC(=O)CSc2nnc(C3CC3)n2C)no1`, the Potency is inactive: > 76.9 µM.
For `COc1cc(NC(=O)Cc2ccccc2OC)cc(OC)c1`, the Potency is inactive: > 76.9 µM.
`COc1ccc(NC(=O)N2CCC(O)(c3cccnc3)CC2)c(OC)c1`: the Potency is inactive: > 76.9 µM.
With `O=C(c1n[nH]c2c1CCCC2)n1ccnc1`, the Potency is inactive: > 76.9 µM.
As to `COc1ccc(C2=C(C)CC(C)(C)NC2=O)cc1OC`, the Potency was inactive: > 76.9 µM.
`COc1ccccc1NC(=O)c1cc(Cl)ccc1NC(=O)c1ccco1`: the Potency was inactive: > 76.9 µM.
Consider `O=c1c2c(nc3n1CCCCC3)-c1ccccc1CC21CCCC1`, for which the Potency is inactive: > 76.9 µM.
Turning to `COc1ccc(-c2nnc(SCC(=O)N3CCOCC3)o2)cc1`, the Potency is inactive: > 76.9 µM.
In the case of `CCOC(=O)N1CCN(C(=O)c2ccc(NC(=O)c3ccc(C)cc3)cc2)CC1` it was inactive: > 76.9 µM; in that of `O=C(NCc1cccnc1)C1c2ccccc2C(=O)N1C1CCCCCCC1` (centres undefined), inactive: > 76.9 µM; in that of `COc1ccc(OC(=O)c2cccc(S(=O)(=O)N3CCCC3)c2)cc1`, inactive: > 76.9 µM.
In the case of `O=C(OCc1cc(=O)n2cc(Br)ccc2n1)C1COc2ccccc2O1` (centres undefined) it was inactive: > 76.9 µM; in that of `CCCn1c(SCC(=O)Nc2cccc(C(=O)OCC)c2)nnc1-c1ccoc1C`, inactive: > 76.9 µM.
Regarding `COc1cc(C2N(c3ccccn3)C(=O)C3CCCN32)cc(OC)c1OC` (centres undefined), the Potency was inactive: > 76.9 µM.
In the case of `Cc1cc(-c2ccccc2)nc2cc(C(N)=O)nn12` it was inactive: > 76.9 µM.
In the case of `CC(=O)c1cccc(NC(=O)COc2ccccc2)c1` it was inactive: > 76.9 µM; in that of `CCOC(=O)c1cccc(NC(=O)CSc2nnc(COc3ccccc3)n2CC)c1`, inactive: > 76.9 µM; in that of `COc1ccc2[nH]c(C)c(CN3CCCC(C)C3)c(=O)c2c1` (centres undefined), inactive: > 76.9 µM.
With `CCCCSc1nc2c(cc1C#N)CCC2`, the Potency was inactive: > 76.9 µM.
Consider `N#Cc1c(NC(=O)CSc2nnnn2C2CCCCC2)sc2c1CCCC2`, for which the Potency was inactive: > 76.9 µM.
In the case of `COc1cc(C)c(S(=O)(=O)N2CCOCC2)cc1C(C)C` it was inactive: > 76.9 µM; in that of `CC(C)c1cc(C(=O)NCc2cccnc2)no1`, inactive: > 76.9 µM; in that of `NC(=O)NC(CC(=O)OCC(=O)NC(=O)NCc1ccco1)c1ccc(Cl)cc1` (centres undefined), inactive: > 76.9 µM.
In the case of `Cc1ccc2nc(-c3ccc(SCC(=O)Nc4cc(C)on4)nc3)[nH]c2c1` it was inactive: > 76.9 µM; in that of `O=C1c2oc3ccccc3c(=O)c2C(c2cccc(Br)c2)N1Cc1ccco1` (centres undefined), inactive: > 76.9 µM; in that of `O=C(Cn1cnc2c(nnn2Cc2ccc(Cl)cc2)c1=O)NCc1ccco1`, inactive: > 76.9 µM.
Regarding `CCOC(=O)N1CCC(NC(=O)c2cccc3c2C(=O)N(Cc2cccnc2)C3)CC1`, the Potency was inactive: > 76.9 µM.
The result for `O=C(COC(=O)C1COc2ccccc2O1)NC1CCS(=O)(=O)C1` (centres undefined) reads inactive: > 76.9 µM.
On to `CCCNC(=O)Cn1cccc1C(=O)c1ccccc1`, for which the Potency was inactive: > 76.9 µM.
The result for `O=C(C1CCN(S(=O)(=O)N2CCC3(CC2)OCCO3)CC1)N1CCOCC1` reads inactive: > 76.9 µM; that for `CC(C)C(C(=O)Nc1cccnc1)N1C(=O)c2ccccc2C1=O` (centres undefined), inactive: > 76.9 µM; that for `Clc1ccc(OCc2nn3c(C4CCCCC4)nnc3s2)c(Cl)c1`, inactive: > 76.9 µM.
On to `Nc1ncnc2c1CCC2`, for which the Potency is inactive: > 76.9 µM.
Turning to `CCc1cccc(NC(=O)CN2C(=O)NC3(CCCCCCC3)C2=O)c1`, the Potency is inactive: > 76.9 µM.
As to `CSc1nnc(Cc2ccc3c(c2)OCO3)o1`, the Potency is inactive: > 76.9 µM.
As to `CCOc1ccccc1NC(=O)CCN1CCN(S(=O)(=O)c2ccc(OC)cc2)CC1`, the Potency is inactive: > 76.9 µM.
The result for `CCCCN(CC)C(=O)CN(C)S(=O)(=O)c1cccc2nsnc12` reads inactive: > 76.9 µM.
In the case of `CC1CCCCN1CCNC(=O)C1CCN(S(=O)(=O)N2CCCCC2)CC1` (centres undefined) it was inactive: > 76.9 µM; in that of `CCn1c(CCNC(=O)c2cccs2)nnc1SCC(=O)NC1CCCCC1`, inactive: > 76.9 µM.
In the case of `Cc1ccc(C)c(NC(=O)C2CCCN2C(=O)OC(C)(C)C)c1` (centres undefined) it was inactive: > 76.9 µM.
With `O=C(O)c1ccc(COc2ccc(CO)cc2Cl)cc1`, the Potency was inactive: > 76.9 µM.
Consider `CC(CCc1ccccc1)NCc1ccncc1` (centres undefined), for which the Potency was inactive: > 76.9 µM.
In the case of `COCCN(CCOC)S(=O)(=O)c1ccc(C(=O)NC2CCN(Cc3ccccc3)CC2)cc1` it was inactive: > 76.9 µM; in that of `O=C(NCCN1CCN(C(=O)NC2CCCCC2)CC1)NC1CCCCC1`, inactive: > 76.9 µM.
Consider `Fc1ccc(-c2nc3n(n2)Cc2ccccc2-3)cc1`, for which the Potency was inactive: > 76.9 µM.
The result for `COCc1cc(=O)n2[nH]c(C)cc2n1` reads inactive: > 76.9 µM; that for `COc1ccccc1/C=C/CN1CCOCC1`, inactive: > 76.9 µM; that for `CCOC(=O)N1CCN(C(=O)CSc2nnc(-c3ccc(Cl)s3)o2)CC1`, inactive: > 76.9 µM.
In the case of `CCc1nnc(NC(=O)CSc2nnc(-c3ccncc3)n2Cc2ccccc2)s1` it was inactive: > 76.9 µM.
In the case of `CSc1nnc(-c2ccccc2Cl)n1N` it was inactive: > 76.9 µM; in that of `Cc1cc2nnc(SCC(=O)NCc3ccco3)n2c2ccccc12`, inactive: > 76.9 µM.
With `CN(C)C(=O)CN1C(=O)C2CC=C(Cl)CC2C1=O` (centres undefined), the Potency was inactive: > 76.9 µM.
The result for `Cc1ccc(S(=O)(=O)Cn2nnnc2CN2CCN(C(=O)c3ccco3)CC2)cc1` reads inactive: > 76.9 µM; that for `O=C(NCCCN1CCCC1)Nc1cccc2ccccc12`, inactive: > 76.9 µM.
In the case of `CS(=O)(=O)N1CCCC(C(=O)NCc2ccc(F)cc2)C1` (centres undefined) it was inactive: > 76.9 µM; in that of `COc1ccc(CCNC(=O)CCCCn2c(=O)[nH]c3ccccc3c2=O)cc1OC`, inactive: > 76.9 µM.
